According to PMC4336329 (PLoS ONE, 2015):
The whole screen tested about 310,000 compounds, of which about 14,000 (4.5%) showed an effect of 50% or more. The effect is printed as a negative number. The list shows a part of the results.

Each molecule was assayed against human ether-à-go-go-related gene (hERG) potassium channel (human, UniProt Q12809) (assay: primary screen, population patch clamp on CHO cells stably expressing hERG).
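Note: peak tail current of the secondary pulse compared with the same well before compound.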

human ether-à-go-go-related gene (hERG) potassium channel, sequence (Q12809 whole entry, looked up): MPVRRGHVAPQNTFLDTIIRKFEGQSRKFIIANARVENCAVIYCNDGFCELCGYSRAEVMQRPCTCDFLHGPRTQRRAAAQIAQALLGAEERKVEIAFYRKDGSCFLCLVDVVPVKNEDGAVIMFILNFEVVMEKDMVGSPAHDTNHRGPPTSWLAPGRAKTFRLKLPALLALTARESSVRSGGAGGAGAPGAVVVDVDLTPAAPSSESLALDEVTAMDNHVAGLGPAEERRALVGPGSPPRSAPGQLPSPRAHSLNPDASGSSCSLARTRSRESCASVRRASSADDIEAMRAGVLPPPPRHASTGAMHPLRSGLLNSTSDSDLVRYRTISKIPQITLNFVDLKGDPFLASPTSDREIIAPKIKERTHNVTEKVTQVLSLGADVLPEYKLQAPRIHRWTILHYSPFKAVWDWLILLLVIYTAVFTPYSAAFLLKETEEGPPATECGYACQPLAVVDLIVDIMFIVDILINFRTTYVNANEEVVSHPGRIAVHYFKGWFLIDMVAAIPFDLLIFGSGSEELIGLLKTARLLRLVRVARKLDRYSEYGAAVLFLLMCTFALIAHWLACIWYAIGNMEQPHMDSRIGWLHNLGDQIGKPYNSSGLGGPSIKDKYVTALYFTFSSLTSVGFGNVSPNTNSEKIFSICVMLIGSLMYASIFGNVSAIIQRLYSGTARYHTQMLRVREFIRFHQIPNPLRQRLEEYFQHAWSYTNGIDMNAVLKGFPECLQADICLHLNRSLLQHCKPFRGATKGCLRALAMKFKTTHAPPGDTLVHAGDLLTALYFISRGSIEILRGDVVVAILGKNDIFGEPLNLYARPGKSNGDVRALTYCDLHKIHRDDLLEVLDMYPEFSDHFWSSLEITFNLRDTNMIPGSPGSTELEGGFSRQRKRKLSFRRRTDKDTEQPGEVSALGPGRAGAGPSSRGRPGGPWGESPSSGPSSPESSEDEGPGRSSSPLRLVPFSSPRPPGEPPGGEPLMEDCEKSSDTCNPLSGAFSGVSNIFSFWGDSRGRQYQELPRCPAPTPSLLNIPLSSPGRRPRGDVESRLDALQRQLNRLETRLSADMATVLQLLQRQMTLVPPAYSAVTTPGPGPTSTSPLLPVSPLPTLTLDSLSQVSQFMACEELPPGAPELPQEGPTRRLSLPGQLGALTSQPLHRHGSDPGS

Row | Compound | hERG current change (%, negative = inhibition) at 10uM
1 | Cc1cccc(NC(=S)NN2CCOCC2)c1C | 0.896%
2 | Oc1ccc2ccccc2c1/C=N/n1cnnc1 | -11.9%
3 | COCCCNC(=O)/C=C/c1ccc(OCc2c(F)cccc2Cl)cc1 | -1.25%
4 | Cc1cc(=O)n(C)c(=O)n1CCCCCCOc1cccc([N+](=O)[O-])c1 | -69.3%
5 | COc1ccc(CCNC(=O)c2cnc3scc(C)n3c2=O)cc1OC | -22.9%
6 | CCOc1ccccc1NC(=O)CCc1c(C)nn(-c2ccc(N3CCCCC3)nn2)c1C | 2.28%
7 | O=C(CNC(=O)c1ccc(F)cc1)N/N=C/c1cc(Br)ccc1OCc1ccccc1 | 16.5%
8 | Cc1nn(-c2ccccc2)c(Cl)c1/C=N/NC(=O)c1ccnn1C | 3.53%
9 | NC(=O)c1nsnc1-c1ccccc1O | 7.95%
10 | COC(=O)[C@@]12CCCCN1[C@H](c1ccc(-c3ccc(OC)cc3)c(OC)c1)[C@@H]1C(=O)N(C)C(=O)[C@@H]12.O=C(O)C(F)(F)F | 6.68%
11 | COc1ccc(NC(C)C(=O)N/N=C/c2ccc([N+](=O)[O-])s2)cc1 (centres unmarked) | -25.4%
12 | CCNC(=S)N1CCCC(c2nc3ccc(C)cc3[nH]2)C1 (centres unmarked) | -2.45%
13 | Cn1cccc1C(=O)OCc1cc(Cl)cc2c1OCOC2 | -1.05%
14 | O=C1c2ccccc2C(=O)N1CCCCN(C(=O)c1cc2ccccc2oc1=O)c1ccc(Cl)cc1 | -2.87%
15 | N#Cc1c(SCC(=O)O)nc(N2CCOCC2)c2c1CCCC2 | 7.71%
16 | CCC(C)NC(=O)CN1c2cccc3cccc(c23)S1(=O)=O (centres unmarked) | 2.42%
17 | COC(=O)c1c(-c2ccccc2Cl)noc1-c1cnc(N)nc1C(F)(F)F | 8.78%
18 | O=[n+]1cc(-c2ccc(Cl)cc2)n([O-])c2c1CCCCC2 | -5.42%
19 | COc1ccc(C(=O)CSC2=NS(=O)(=O)c3cc(Cl)ccc3N2)cc1 | 11.5%

Row | Compound | hERG current change (%, negative = inhibition) at 10uM
20 | CCN(CC1CCCN(CCc2cccc(OC)c2)C1)C(=O)c1ccc(COC)o1 (centres unmarked) | -71%
21 | COc1cc(OC)c2c(c1)O/C(=C\c1ccccc1)C2=O | 5.65%
22 | CCCCC(=O)Nc1nc2c(OC)ccc(OC)c2s1 | 7.3%
23 | CCOc1ccc(NS(=O)(=O)c2ccc(OCC(=O)NCCCOC)cc2)cc1 | -12.8%
24 | CCCOC(=O)c1ccc(Oc2cn[nH]c2-c2ccc(OC)cc2O)cc1 | -1.75%
25 | Cc1csc(=N)n1CC(=O)N1CCc2ccccc21 | -8.19%
26 | CCOC(=O)Cn1nnnc1C(CC)N(Cc1cc2ccc(C)cc2[nH]c1=O)C1CCCC1 (centres unmarked) | -12.2%
27 | O=C(c1c(F)c(F)c(F)c(F)c1F)N(Cc1ccccc1)Cc1ccccc1 | -0.767%
28 | CC1CCc2c(sc3nc(CSc4ncn[nH]4)[nH]c(=O)c23)C1 (centres unmarked) | -8.83%
29 | CC(C)=C(NC(=O)c1ccco1)C(=O)NCCc1nc2ccccc2[nH]1 | 1.12%
30 | CC(C)c1cccc(-c2ccc3c(c2)S(=O)(=O)c2cccc(C(=O)O)c2C3=O)c1 | -11.7%
31 | Cc1ccc(N(C)S(=O)(=O)c2cccc(C(=O)NCC(c3cccs3)N3CCOCC3)c2)cc1 (centres unmarked) | -36.2%
32 | Cc1ccc2c(CN(C)Cc3ccccc3)cc(=O)oc2c1C | 4.27%
33 | Cc1ccnc(NC(=O)Nc2ccc(F)cc2)c1 | 11.2%
34 | Cc1ccccc1N1CCN(c2ncnc3c2cnn3Cc2ccc(Cl)cc2)CC1 | 16.9%
35 | Cn1nc(CC(=O)NCc2ccc(C(F)(F)F)cc2)c2ccccc2c1=O | -17.7%
36 | O=C(O)CC/C(=N/NC(=O)CNC(=O)C(c1ccccc1)c1ccccc1)c1ccccc1 | 5.5%
37 | COc1cccc(CNC(=O)C2CCN(S(=O)(=O)c3ccc(C)cc3)CC2)c1 | -50.4%
38 | O=C(CSc1nc2[nH]ncc2c(=O)[nH]1)Nc1ccccc1 | -14.5%

Row | Compound | hERG current change (%, negative = inhibition) at 10uM
39 | COc1ccccc1NC(=O)c1c(N=Cc2cccc([N+](=O)[O-])c2)cnn1C | -0.0374%
40 | C=CCc1cc(/C=C/c2nc(O)c([N+](=O)[O-])c(=O)[nH]2)cc(OC)c1O | 26.2%
41 | N#C/C(=C(/O)COc1ccccc1)c1nc2ccccc2s1 | 28.8%
42 | CN(C)C(=O)CSc1nc2ccccc2n1Cc1ccccc1 | -11.8%
43 | Cc1c(NC(=S)NC(=O)c2cccc3ccccc23)cccc1C(=O)O | 4.47%
44 | O=C(COC(=O)c1cc(=O)c2ccccc2o1)NCC1CCCCC1 | 6.26%
45 | CCO.N#Cc1c(SC(C(=O)O)c2ccccc2)nc2c(c1-c1cccs1)CCCC2 (centres unmarked) | 25.2%
46 | CCCNC(=O)c1ccccc1NC(=O)c1ccccc1N(C)S(C)(=O)=O | 1.99%
47 | Cc1cc(NC(=O)CSc2nc(C3CC3)nc3sc(C)c(C)c23)no1 | 13.5%
48 | O=C(CSCc1ccc(Cl)cc1)Nc1ccc(Br)cc1C(=O)O | 11%
49 | CC(C)NC(=O)CN(c1cccc(Br)c1)S(C)(=O)=O | -16.9%
50 | Cc1ccccc1C(=O)N1CCC(C(=O)NCc2ccc(Cl)cc2)CC1 | -6.59%
51 | COc1ccc(C(C)NC(=O)c2ccoc2C)cc1OC (centres unmarked) | 6.02%
52 | Cc1ccc(N(CCC#N)C(=O)COC(=O)c2cc(C)no2)cc1 | 10.8%
53 | COCCCNC(=O)Cn1cc2c(n1)CCC(C)C2 (centres unmarked) | 1.99%
54 | O=C(O)CCCCCN1C(=O)CSC1=S | 3.56%
55 | CCOC(=O)CSCC(=O)N1CCC(Cc2ccccc2)CC1 | 3.24%
56 | CSc1ccccc1NC(=S)NC1CCCC1 | 9.72%
